Data on 58 molecules can be found in publication PMC4336329 (PLoS ONE, 2015).

About 2,200 (0.71%) of roughly 310,000 compounds showed an effect of 50% or more. The effect is printed as a negative number. The list shows a part of the results.

human ether-à-go-go-related gene (hERG) potassium channel, sequence (Q12809 whole entry, looked up): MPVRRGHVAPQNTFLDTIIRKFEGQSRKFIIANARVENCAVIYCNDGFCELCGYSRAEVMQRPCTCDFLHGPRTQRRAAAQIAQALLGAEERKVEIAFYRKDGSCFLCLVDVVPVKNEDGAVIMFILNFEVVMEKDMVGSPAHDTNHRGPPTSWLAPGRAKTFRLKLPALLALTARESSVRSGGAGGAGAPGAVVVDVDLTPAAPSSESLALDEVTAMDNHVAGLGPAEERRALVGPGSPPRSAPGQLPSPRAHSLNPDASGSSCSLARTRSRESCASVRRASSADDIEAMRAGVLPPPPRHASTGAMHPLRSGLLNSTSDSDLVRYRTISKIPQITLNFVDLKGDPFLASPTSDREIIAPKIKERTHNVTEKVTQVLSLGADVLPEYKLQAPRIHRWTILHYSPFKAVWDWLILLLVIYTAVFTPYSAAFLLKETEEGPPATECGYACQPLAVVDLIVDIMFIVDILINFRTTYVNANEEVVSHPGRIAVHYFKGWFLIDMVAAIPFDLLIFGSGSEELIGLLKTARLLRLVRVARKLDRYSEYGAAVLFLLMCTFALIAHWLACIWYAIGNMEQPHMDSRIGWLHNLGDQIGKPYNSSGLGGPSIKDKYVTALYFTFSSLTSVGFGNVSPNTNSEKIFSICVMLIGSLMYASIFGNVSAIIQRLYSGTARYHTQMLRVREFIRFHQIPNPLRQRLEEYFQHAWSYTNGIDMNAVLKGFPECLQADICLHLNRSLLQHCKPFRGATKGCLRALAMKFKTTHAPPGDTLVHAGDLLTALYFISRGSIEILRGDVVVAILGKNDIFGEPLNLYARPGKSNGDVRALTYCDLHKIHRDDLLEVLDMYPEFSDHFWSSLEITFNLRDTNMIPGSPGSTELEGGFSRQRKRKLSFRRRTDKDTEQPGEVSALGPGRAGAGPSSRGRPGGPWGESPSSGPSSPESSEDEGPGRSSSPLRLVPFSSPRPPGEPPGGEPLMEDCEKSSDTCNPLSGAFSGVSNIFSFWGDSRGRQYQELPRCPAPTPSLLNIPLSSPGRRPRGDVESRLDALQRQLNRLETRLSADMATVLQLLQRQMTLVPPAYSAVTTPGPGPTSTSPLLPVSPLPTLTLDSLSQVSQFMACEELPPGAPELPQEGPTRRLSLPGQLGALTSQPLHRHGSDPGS

This assay concerns the target human ether-à-go-go-related gene (hERG) potassium channel (human, UniProt Q12809). Put plainly: primary screen, population patch clamp on CHO cells stably expressing hERG.
For `Cc1ccc(N(C(=O)c2csnn2)C(C(=O)NC(C)(C)C)c2cccs2)cc1` (stereo not shown), the “hERG current change (%, negative = inhibition) at 1uM” value is -8.47%. As for `Cc1cccc(NC(=O)C2CCN(S(=O)(=O)c3ccc4ccccc4c3)CC2)n1`, the “hERG current change (%, negative = inhibition) at 1uM” value was determined as 4.11%. For the molecule `CCCOC(=O)CCNc1n[nH]c(=O)[nH]c1=O`, the “hERG current change (%, negative = inhibition) at 1uM” value is recorded as 6.02%. The result for `O=C(NCc1ccco1)C1CCN(C(=O)c2ccc([N+](=O)[O-])cc2)CC1` reads 5.51%; that for `Cc1ccc(NC(=O)CSc2nc3c([nH]c4ccccc43)c(=O)n2C)cc1`, 7.78%; that for `COc1cc(OC)cc(C(=O)Nc2ccc(-c3nc4ccccc4o3)cc2)c1`, 0.655%.

Take `O=c1cnnc(N/N=C/c2cccs2)[nH]1`: the “hERG current change (%, negative = inhibition) at 1uM” value is given as 12.9%.

`O=C(O)c1ccc(NCc2ccncc2)cc1`: the “hERG current change (%, negative = inhibition) at 1uM” value is given as -8.36%. The figure for `Cc1ccc(-n2nc3c(N4CCC(C(=O)NCc5cccc(F)c5)CC4)nnc(C)c3c2C)cc1` is 11.9%; for `Cc1ccc(CCNC(=O)CCc2nc3ccccc3[nH]2)cc1` it is -3.85%; for `c1cc(-c2nnn(CCOCCn3nnc(-c4ccncc4)n3)n2)ccn1` it is 8.91%. As for `CC(=O)Nc1ccc(OC(=O)c2cc3ccccc3oc2=O)cc1`, the “hERG current change (%, negative = inhibition) at 1uM” value was -3.56%. The figure for `O/N=C/c1cc(Br)cs1` is 12.7%. The result for `C(=C\c1ccccc1)/C=N/N1CCN(Cc2ccccc2)CC1` reads 4.41%; that for `CCCn1c(NC(=O)C2CCN(C(=O)c3ccc(F)cc3)CC2)nc2ccccc21`, -8.4%. As for `COc1ccccc1NC(=O)CSc1nc2c(oc3ccccc32)c(=O)n1C`, the “hERG current change (%, negative = inhibition) at 1uM” value turned out to be 10.2%. The figure for `O/N=C1/CCc2nonc2/C1=N/O` is -4.66%; for `COc1cccc(-c2cn(C[C@H]3CC[C@@H]([C@@H]4CC[C@H](Cn5cc(-c6cccc(OC)c6)nn5)O4)O3)nn2)c1` it is -21.1%; for `COc1ccc(-c2cc(C)no2)cc1S(=O)(=O)N1CCCCC1` it is 11.3%. The figure for `Cn1c(=O)c(=O)n(C)c2cc([N+](=O)[O-])c([N+](=O)[O-])cc21` is 13.1%; for `COc1ccc(CCC(=O)N2CCc3ccccc32)cc1` it is -8.55%. The result for `COc1cc(OC)c(C(=O)O/N=C(\N)c2ccccc2)cc1OC` reads 9.78%; that for `COC(=O)c1cnn(C(=O)c2ccccc2Br)c1N`, 2.87%. On to `NC(=O)C1(N2CCCCC2)CCN(c2ccc3nnc(-c4ccccc4)n3n2)CC1`, for which the “hERG current change (%, negative = inhibition) at 1uM” value stood at 0.0345%.

Regarding `CCN(Cc1ccccc1)C(=O)COC(=O)c1cc(Cl)nc(Cl)c1`, the “hERG current change (%, negative = inhibition) at 1uM” value was 14.5%. For `COc1ccc(C(c2nnnn2CCc2ccccc2)N2CCN(C3CCCC3)CC2)cc1OC.Cl` (stereo not shown), the “hERG current change (%, negative = inhibition) at 1uM” value is -20.8%. Regarding `CC(C)N(CC(N)=O)C(=O)c1sc2cc(F)ccc2c1Cl`, the “hERG current change (%, negative = inhibition) at 1uM” value stood at 8.46%.

Consider `C(=N\N1CCN(c2ccccc2)CC1)/c1ccccc1`, for which the “hERG current change (%, negative = inhibition) at 1uM” value was found to be 7.61%.

`COC(=O)C(C)N=Cc1ccccc1` (stereo not shown): the “hERG current change (%, negative = inhibition) at 1uM” value is given as 10%. In the case of `CCCOc1ccc(/C=N/Nc2cc(N3CCOCC3)ncn2)c(O)c1`, the “hERG current change (%, negative = inhibition) at 1uM” value was 18.2%. Take `Clc1ccc(CN(CC2CCCO2)C(c2cccs2)c2nnnn2C2CCCC2)cc1` (stereo not shown): the “hERG current change (%, negative = inhibition) at 1uM” value is reported as 7.02%. The figure for `C(=N\N1CCN(C2c3ccccc3-c3ccccc32)CC1)/c1ccncc1` is 8.08%; for `COC(=O)C(Cc1ccc(O)cc1)NC(=O)c1ccccc1` (stereo not shown) it is 8.67%; for `Cc1nc(NC(=O)c2cncc(Br)c2)ccc1Br` it is 8.02%. The figure for `O=[N+]([O-])c1cccc(/C=N/Nc2ncc(Br)cn2)c1` is 19.4%; for `Cc1cccc(N(CC(=O)N2CCOCC2)S(C)(=O)=O)c1` it is 10.5%.

`O=C(CC1Nc2cccc3cccc(c23)NC1=O)Nc1ccccc1` (stereo not shown): the “hERG current change (%, negative = inhibition) at 1uM” value is on record as 6.48%. The figure for `O=C1CNC(=O)N1Cc1ccc(Br)cc1` is 3.57%; for `CCCc1[nH]nc2c1C(c1ccc(OC(=O)N3CCOCC3)c(OC)c1)C(C#N)=C(N)O2` (stereo not shown) it is 10.7%; for `O=C(NCCc1ccccc1)C(c1ccccc1F)N(C(=O)c1csnn1)C1CC1` (stereo not shown) it is 10.4%.

On to `C/C=C/C(=O)OCC(=O)Nc1ccc(C)c(S(=O)(=O)N(C)C)c1`, for which the “hERG current change (%, negative = inhibition) at 1uM” value worked out at 10.7%. On to `CCNc1nc(OC)nc(SCC(N)=O)n1`, for which the “hERG current change (%, negative = inhibition) at 1uM” value stood at 16.4%. The figure for `COc1cc(/C=C2\SC(=S)N(Nc3ccccc3)C2=O)cc(OC)c1OC` is 1.08%. The figure for `CCOP1(=S)Oc2cc3c(cc2C(C(=O)OC)(C(F)(F)F)O1)OCO3` (stereo not shown) is 5.27%; for `Cc1nc(C)c(-c2ccc(SCc3ccccc3F)nn2)s1` it is 14.6%. The result for `CCSc1nnc(-c2cccs2)o1` reads 12.2%; that for `CCCc1cc(=O)n2[nH]c(C)c(-c3ccc(OC)cc3)c2n1`, 8.54%. On to `CCOC(=O)CSc1nc(N2CCOCC2)c2c(c1C#N)CC(C)(C)OC2`, for which the “hERG current change (%, negative = inhibition) at 1uM” value turned out to be 4.1%. The result for `Cc1ccc(NS(=O)(=O)c2ccc(OCC(=O)NCC3CCCO3)cc2)cc1` (stereo not shown) reads 5.92%; that for `CC(C)c1ccc(NC(=O)COC(=O)/C=C/c2cccc([N+](=O)[O-])c2)cc1`, 6.15%; that for `COCCn1c(=O)[nH]c(=O)c2cc(C(=O)c3cc(Cl)ccc3O)cnc21`, 3.25%. Regarding `O=C(COC(=O)c1ccc(Br)o1)Nc1nc2ccccc2s1`, the “hERG current change (%, negative = inhibition) at 1uM” value is -4.47%. The result for `Nc1c(-c2ccc(F)cc2)cnn1C1CCS(=O)(=O)C1` (stereo not shown) reads 7.06%; that for `O=C(C(Sc1ccccc1)c1ccccc1)N1CCOCC1` (stereo not shown), 4.17%. The figure for `Cc1ccc(-c2n[nH]c(=O)c3ccccc23)cc1S(=O)(=O)Nc1ccc(F)cc1` is 13.3%; for `CC(CC(F)(F)F)N1CCC(n2nccc2NC(=O)CCOc2ccccc2)CC1` (stereo not shown) it is 7.12%; for `COc1ccc(/C=C/C(=O)NC(=S)NCc2ccccc2)cc1OC` it is 11.8%. As for `O=C(NCC1CCCO1)c1ccc(COc2ccccc2)cc1` (stereo not shown), the “hERG current change (%, negative = inhibition) at 1uM” value is on record as -5.37%.
